This note sets out measurements from ChEMBL document CHEMBL3526033, “Identification of human liver cytochrome P450 enzymes involved in the metabolism of SCH 530348 (Vorapaxar), a potent oral thrombin protease-activated receptor 1 antagonist” (Drug Metab Dispos, 2011).

Substrate in the data set: CCOC(=O)N[C@@H]1CC[C@@H]2[C@@H](C1)C[C@H]1C(=O)O[C@H](C)[C@H]1[C@H]2/C=C/c1ccc(-c2cccc(F)c2)cn1
Nature of the data set: Activity of human recombinant CYP3A4 assessed as enzyme-mediated (3R,3aS,4S,4aR,7R,8aR,9aR)-7-amino-4-((E)-2-(5-(3-fluorophenyl)pyridin-2-yl)vinyl)-3-methyldecahydronaphtho[2,3-c]furan-1(3H)-one formation by LC-MS/MS analysis. Format: ADME.

B1: Cytochrome P450 3A4 (Homo sapiens) (protein)
chain: MALIPDLAMETWLLLAVSLVLLYLYGTHSHGLFKKLGIPGPTPLPFLGNILSYHKGFCMFDMECHKKYGKVWGFYDGQQPVLAITDPDMIKTVLVKECYSVFTNRRPFGPVGFMKSAISIAEDEEWKRLRSLLSPTFTSGKLKEMVPIIAQYGDVLVRNLRREAETGKPVTLKDVFGAYSMDVITSTSFGVNIDSLNNPQDPFVENTKKLLRFDFLDPFFLSITVFPFLIPILEVLNICVFPREVTNFLRKSVKRMKESRLEDTQKHRVDFLQLMIDSQNSKETESHKALSDLELVAQSIIFIFAGYETTSSVLSFIMYELATHPDVQQKLQEEIDAVLPNKAPPTYDTVLQMEYLDMVVNETLRLFPIAMRLERVCKKDVEINGMFIPKGVVVMIPSYALHRDPKYWTEPEKFLPERFSKKNKDNIDPYIYTPFGSGPRNCIGMRFALMNMKLALIRVLQNFSFKPCKETQIPLKLSLGGLLQPEKPVVLKVESRDGTVSGA
Regarding B1, the Km was 22.9 µM and the maximal velocity (Vmax) came out at 0.000166 µmol/min.
